Test results published in PubChem BioAssay AID540317 (National Center for Advancing Translational Sciences (NCATS), 2011).
Values joined by “and” are separate entries in the source; they are usually repeats but may differ in a detail not shown here. Identical values can stand only once. Among all 390,000 compounds or so, about 2,200 (0.56%) were called active. Entries that show only a call come without a potency. Inconclusive results, whose numbers are uncertain, are shown with a selection of clear calls. Calls follow the shape of the dose curve; as a rule, active = well fitted inhibition curve with a large enough effect; inconclusive = small, poorly fitted or top-dose-only effect; inactive = no such curve, though single readings can be large or run the other way. Potencies of inconclusive entries are doubtful fits and often do not repeat.

Each compound was assayed against Chromobox protein homolog 1 (Homo sapiens) (UniProt P83916) (assay: HTS for Inhibitors of HP1-beta Chromodomain Interactions with Methylated Histone Tails). Settings: AlphaScreen HP1-beta / biotin-H3K9me3 peptide binding; series mostly up to 114 µM.
How it was run: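 Compound inhibition of the preformed complex between 50 nM HP1-beta and 50 nM biotinylated H3K9me3 peptide was read by AlphaScreen. Buffer was PBS pH 7.4 with 0.01% Tween-20. Incubations ran 30 min at room temperature, with 10 ug/mL donor/acceptor beads.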
Also: nearly all actives have a fitted effect of over 70% in size.
Potency is read from the fitted curve at half-maximal effect; tags tell the direction and shape of the fitted curve.

Chain of UniProt P83916 (P83916 whole entry, looked up): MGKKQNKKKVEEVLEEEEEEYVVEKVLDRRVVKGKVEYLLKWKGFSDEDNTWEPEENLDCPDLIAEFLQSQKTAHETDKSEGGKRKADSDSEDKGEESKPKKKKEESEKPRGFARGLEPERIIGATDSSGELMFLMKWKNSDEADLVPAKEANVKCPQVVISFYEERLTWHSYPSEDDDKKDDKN

Q: `O=C(NCCc1c[nH]c2ccccc12)c1cc(Cl)c2c(c1)OCO2` was tested. Which Potency did it give?
A: inconclusive: 79.4 µM [inhibitor, single point]

Q: Which Potency does the source give for `Cc1ccccc1N1C(=O)C(Cl)=C(N2CCN(c3ccccc3)CC2)C1=O` here?
A: inconclusive: 31.6 µM [inhibitor, partial curve]

Q: Which Potency does the source give for `CCCC[C@@H]1C=C(C(=O)O)[C@H](c2ccc(Cl)cc2)N1S(=O)(=O)c1ccc(C)cc1` here?
A: inactive

Q: `O=C(c1ccccc1)c1ccc2nc(N3CCN(c4ccc(F)cc4)CC3)c3nncn3c2c1` was tested. Which Potency did it give?
A: inactive

Q: Which Potency does the source give for `Cc1cc(Br)ccc1SCC(=O)OCC(=O)NCc1ccco1` here?
A: inconclusive: 25.1 µM [inhibitor, full curve]

Q: Which Potency does the source give for `CN(C)c1ccc(/C=C2/C=C(c3ccc4c(c3)CCCC4)OC2=O)cc1` here?
A: inconclusive: 3.98 µM [inhibitor, full curve, poor fit]

Q: How did the Potency turn out when `O=C(O)c1cccc(NC(=S)N/N=C/c2ccccc2OCc2cccc(Br)c2)c1` was run?
A: inconclusive: 70.8 µM [inhibitor, partial curve]

Q: Which Potency does the source give for `CCOc1ccc(OCCn2c(=S)[nH]c3ccccc32)cc1` here?
A: inconclusive: 14.1 µM [inhibitor, full curve]

Q: How did the Potency turn out when `Cn1/c(=N/N=C/c2ccc(N3CCOCC3)cc2)sc2ccccc21` was run?
A: inactive

Q: For `CC(C)n1c(NCCc2ccccc2)nc2c1c(=O)n(C)c(=O)n2C`, which Potency is on record?
A: inactive

Q: For `c1ccc(-c2c(-c3ccccc3)n(Cc3ccco3)c3ncnc(NCCCn4ccnc4)c23)cc1`, which Potency is on record?
A: inconclusive: 39.8 µM [inhibitor, single point]

Q: How did the Potency turn out when `CN(CCOCCOc1ccc(F)cc1)Cc1ccccc1` was run?
A: inconclusive: 14.1 µM [inhibitor, partial curve]

Q: For `Cc1cc(C)n(CCCNCC(O)c2ccccc2)n1` (stereo unspecified), which Potency is on record?
A: inconclusive: 56.2 µM [inhibitor, partial curve] and inconclusive: 56.2 µM [inhibitor, single point]

Q: `CC(NC(=O)COC(=O)CCC(=O)c1ccc(F)cc1)c1ccccc1` (stereo unspecified) was tested. Which Potency did it give?
A: inactive

Q: With `CC(=O)Oc1cc2c3c(c1)/C(=C1/SC(=S)NC1=O)C(=O)N3C(C)(C)C=C2C` as the compound, how does the Potency read?
A: inconclusive: 10 µM [inhibitor, full curve, poor fit]

Q: With `O=C(Nc1ccc(N2CCCC2)c(Cl)c1)c1cccs1` as the compound, how does the Potency read?
A: inconclusive: 50.1 µM [inhibitor, partial curve]

Q: How did the Potency turn out when `COc1cccc(CSc2ccc(S(=O)(=O)N3CCOCC3)cc2C(=O)NCC2CCCO2)c1OC` (stereo unspecified) was run?
A: inactive

Q: With `CC(=O)c1cc(-c2ccccc2)n(CCC(=O)Nc2nc3c(C)cccc3s2)c1C` as the compound, how does the Potency read?
A: inactive

Q: `O=C1Cc2cc(S(=O)(=O)N3CCCCC3)cc3c2N1CCC3` was tested. Which Potency did it give?
A: inactive

Q: For `CCN(C[C@H]1N[C@@](Cc2ccccc2)(C(=O)OC)[C@H]2C(=O)N(Cc3ccccc3)C(=O)[C@@H]12)C(=O)NC(C)C`, which Potency is on record?
A: inactive

Q: How did the Potency turn out when `CC(=O)c1ccc(NC(=O)CNC2CCCCC2)cc1` was run?
A: inconclusive: 56.2 µM [inhibitor, single point]

Q: With `Fc1ccc(-n2ncc3c(N4CCN(Cc5ccccc5)CC4)ncnc32)cc1` as the compound, how does the Potency read?
A: inactive

Q: Which Potency does the source give for `CCOC(=O)CNc1ccc(C(=O)OCC)cc1[N+](=O)[O-]` here?
A: inactive

Q: With `COc1cc(CN2CCN(S(=O)(=O)c3ccc(F)cc3)CC2)cc(OC)c1OC` as the compound, how does the Potency read?
A: inconclusive: 25.1 µM [inhibitor, partial curve] and inconclusive: 56.2 µM [inhibitor, partial curve]

Q: How did the Potency turn out when `CC(=O)c1ccc(N2CCN(C(=O)C3CCCN(S(=O)(=O)c4c(C)[nH]c(=O)[nH]c4=O)C3)CC2)cc1` (stereo unspecified) was run?
A: inactive

Q: `COc1ccc(C(C#N)=C2C=CC(=NO)C(C)=C2Cl)cc1` was tested. Which Potency did it give?
A: inconclusive: 7.94 µM [inhibitor, full curve, poor fit]

Q: `Cc1ccc(C)c(Cn2cnc3ccccc3c2=O)c1` was tested. Which Potency did it give?
A: inactive

Q: With `CC(=O)[C@H]1[C@@H]2C(=O)N(c3cccc(Cl)c3)C(=O)[C@@H]2[C@H]2c3ccccc3C=CN21` as the compound, how does the Potency read?
A: inactive

Q: Which Potency does the source give for `O=C(O)c1ccc(CP(=O)(c2ccccc2)c2ccccc2)cc1` here?
A: inactive

Q: `CN1CCN(C2=Cc3ccccc3Sc3cc(F)c(F)cc32)CC1` was tested. Which Potency did it give?
A: inconclusive: 39.8 µM [inhibitor, single point]

Q: With `CC/C(=C\c1ccc(N(C)C)cc1)c1ccncc1` as the compound, how does the Potency read?
A: inconclusive: 50.1 µM [inhibitor, partial curve, poor fit]

Q: For `CCCCOc1ccc(C(=O)Nc2ccc3c(c2)CCCN3S(=O)(=O)c2ccc(C)cc2)cc1`, which Potency is on record?
A: inactive

Q: For `CCOc1ccc(N(CC(=O)NCC2CCCO2)S(=O)(=O)c2ccc(Cl)cc2)cc1` (stereo unspecified), which Potency is on record?
A: inactive

Q: With `CCOc1cccc(/C=N/NC(=O)c2cc(-c3cccn3C)n[nH]2)c1O` as the compound, how does the Potency read?
A: inconclusive: 20 µM [inhibitor, partial curve, poor fit]

Q: `O=C(N[C@@H](Cc1ccccc1)C(=O)O)c1cccnc1` was tested. Which Potency did it give?
A: inactive

Q: Which Potency does the source give for `CCc1ccc2occ(CC(=O)N(Cc3ccc(N(C)C)cc3)C3CCS(=O)(=O)C3)c2c1` (stereo unspecified) here?
A: inconclusive: 15.8 µM [inhibitor, full curve]

Q: Which Potency does the source give for `COc1ccccc1OCCn1cc(/C=C(\C#N)C(=O)NCc2cccs2)c2ccccc21` here?
A: inconclusive: 3.16 µM [inhibitor, partial curve, poor fit]

Q: `CCc1cc2c(=O)n(Cc3ccco3)c(SCC(=O)N3CCCc4ccccc43)nc2s1` was tested. Which Potency did it give?
A: inactive

Q: How did the Potency turn out when `CCCN(CCO)Cc1ccc(F)c(Br)c1` was run?
A: inconclusive: 56.2 µM [inhibitor, partial curve]

Q: With `COc1ccc(CN2CCN(S(=O)(=O)c3ccc(NC(C)=O)cc3)CC2)c(OC)c1OC` as the compound, how does the Potency read?
A: inconclusive: 14.1 µM [inhibitor, partial curve, poor fit] and inconclusive: 15.8 µM [inhibitor, full curve, poor fit]

Q: How did the Potency turn out when `O=C(CN1C(=O)NC2(CCCC2)C1=O)c1ccc(Cl)s1` was run?
A: inactive

Q: `Cc1cc(OCc2cc3c(cc2Cl)OCO3)c2c(C)cc(=O)oc2c1` was tested. Which Potency did it give?
A: inactive

Q: Which Potency does the source give for `FCCCOc1ccc(-c2nccc(-c3ccccn3)n2)cc1` here?
A: inactive

Q: For `COc1ccc(NCc2cc(=O)[nH]c3ccccc23)cc1`, which Potency is on record?
A: inactive

Q: With `CCCCn1c(SCC(=O)Nc2nnc(C)s2)nnc1-c1ccoc1C` as the compound, how does the Potency read?
A: inactive

Q: How did the Potency turn out when `CC(C)(c1ccccc1)c1ccc(OCCN2CCOCC2)cc1` was run?
A: inconclusive: 22.4 µM [inhibitor, partial curve, poor fit]
